Measured values from the supplement of paper PMC4967469.

Assays:
Experiment in all cases: Viability of human cancer cell lines after 72 h of drug (GDSC screen)
FTI-277 = compound: COC(=O)[C@H](CCSC)NC(=O)c1ccc(NC[C@@H](N)CS)cc1-c1ccccc1 [FTI-277]; conditions: top dose 1.024 µM; top dose inferred
Description: (§1)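 Human cancer cell lines in 384-well plates, medium with 10% serum, drug for 72 h over a 256-fold dose range (nine 2-fold or five 4-fold steps up to the top dose). Adherent lines were fixed and stained with the nucleic acid dye Syto60, suspension lines read with resazurin; signal relative to control wells, capped at 0 and 100%. One two-parameter sigmoid per drug and line, fitted in a mixed model over all curves with the slope shared within a line.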

NSC-207895 = compound: CN1CCN(c2ccc([N+](=O)[O-])c3no[n+]([O-])c23)CC1 [NSC-207895]; conditions: top dose 20 µM; top dose inferred
Description: as §1

JQ1 = compound: Cc1sc2c(c1C)C(c1ccc(Cl)cc1)=N[C@@H](CC(=O)OC(C)(C)C)c1nnc(C)n1-2 [JQ1]
Description: as §1

SB-715992 = compound: Cc1ccc(C(=O)N(CCCN)[C@@H](c2nc3cc(Cl)ccc3c(=O)n2Cc2ccccc2)C(C)C)cc1 [SB-715992]; conditions: top dose 0.128 µM; top dose inferred
Description: as §1

JNJ-26854165 = compound: c1ccc2c(CCNc3ccc(Nc4ccncc4)cc3)c[nH]c2c1 [JNJ-26854165]; conditions: top dose 10 µM
Description: as §1

YM155 = compound: COCC[n+]1c2c(n(Cc3cnccn3)c1C)C(=O)c1ccccc1C2=O [YM155]; conditions: top dose 5.12 µM
Description: as §1

Belinostat = compound: O=C(/C=C/c1cccc(S(=O)(=O)Nc2ccccc2)c1)NO [Belinostat]; conditions: top dose 20 µM; top dose inferred
Description: as §1

Docetaxel = compound: CC(=O)O[C@@]12CO[C@@H]1C[C@H](O)[C@@]1(C)C(=O)[C@H](O)C3=C(C)[C@@H](OC(=O)[C@H](O)[C@@H](NC(=O)OC(C)(C)C)c4ccccc4)C[C@@](O)([C@@H](OC(=O)c4ccccc4)[C@H]21)C3(C)C [Docetaxel]; conditions: top dose 0.0125 µM
Description: as §1

AMG-706 = compound: CC1(C)CNc2cc(NC(=O)c3cccnc3NCc3ccncc3)ccc21 [AMG-706]; conditions: top dose 2 µM; top dose inferred
Description: as §1

JNK Inhibitor VIII = compound: CCOc1nc(NC(=O)Cc2cc(OC)ccc2OC)cc(N)c1C#N [JNK Inhibitor VIII]; conditions: top dose 10 µM; top dose inferred
Description: as §1

OSI-906 = compound: C[C@]1(O)C[C@@H](c2nc(-c3ccc4ccc(-c5ccccc5)nc4c3)c3c(N)nccn32)C1 [OSI-906]; conditions: top dose 2.56 µM; top dose inferred
Description: as §1

[1] = top dose 1 µM, screen: GDSC drug entry 1218, top dose inferred
[2] = top dose 2.56 µM, screen: GDSC drug entry 163

Cell Line | AUC (FTI-277) | IC50 (FTI-277) [nM] | AUC (NSC-207895) | IC50 (NSC-207895) [nM] | AUC (JQ1; [1]) | IC50 (JQ1; [1]) [nM] | AUC (JQ1; [2]) | IC50 (JQ1; [2]) [nM] | AUC (SB-715992) | IC50 (SB-715992) [nM] | AUC (JNJ-26854165) | IC50 (JNJ-26854165) [nM] | AUC (YM155) | IC50 (YM155) [nM] | AUC (Belinostat) | IC50 (Belinostat) [nM] | AUC (Docetaxel) | IC50 (Docetaxel) [nM] | AUC (AMG-706) | IC50 (AMG-706) [nM] | AUC (JNK Inhibitor VIII) | IC50 (JNK Inhibitor VIII) [nM] | AUC (OSI-906) | IC50 (OSI-906) [nM]
NCI-H292 (lung adenocarcinoma, adherent) | 0.972 | > 1020 | 0.827 | 15900 | 0.976 | > 1000 | 0.8 | 1550 | 0.931 | > 128 | 0.755 | 4070 | 0.032 | < 20 | 0.27 | 238 | 0.34 | 0.253 | – | – | – | – | – | –
OAW-28 (ovary, adherent) | 0.982 | > 1020 | 0.983 | > 20000 | 0.97 | > 1000 | 0.871 | > 2560 | 0.757 | 55.1 | 0.911 | > 10000 | 0.169 | 22.7 | 0.266 | 221 | – | – | 0.867 | > 2000 | 0.942 | > 10000 | 0.976 | > 2560
OE19 (oesophagus, adherent) | 0.96 | > 1020 | 0.984 | > 20000 | 0.969 | > 1000 | 0.798 | 1410 | 0.986 | > 128 | 0.964 | > 10000 | 0.575 | 526 | 0.849 | 18100 | – | – | 0.959 | > 2000 | 0.982 | > 10000 | 0.956 | > 2560
OSC-19 (head and neck, adherent) | 0.979 | > 1020 | 0.985 | > 20000 | 0.944 | > 1000 | 0.685 | 539 | 0.793 | 61.2 | 0.971 | > 10000 | 0.042 | < 20 | 0.329 | 410 | – | – | 0.979 | > 2000 | 0.972 | > 10000 | 0.973 | > 2560
OVCAR-3 (ovary, adherent) | 0.985 | > 1020 | 0.987 | > 20000 | 0.985 | > 1000 | 0.765 | 1030 | 0.983 | > 128 | 0.862 | 9990 | 0.977 | > 5120 | 0.987 | > 20000 | – | – | 0.974 | > 2000 | 0.984 | > 10000 | 0.955 | > 2560
OVMIU (ovary, adherent) | 0.976 | > 1020 | 0.76 | 8680 | – | – | 0.614 | 357 | 0.927 | > 128 | 0.811 | 7010 | 0.039 | < 20 | 0.395 | 598 | – | – | 0.938 | > 2000 | 0.879 | > 10000 | 0.915 | > 2560
PA-1 (ovary, adherent) | 0.945 | > 1020 | 0.769 | 6000 | – | – | 0.679 | 446 | 0.496 | 7.82 | 0.779 | 3190 | 0.011 | < 20 | 0.044 | < 78.1 | – | – | 0.993 | > 2000 | 0.993 | > 10000 | 0.993 | > 2560
PANC-03-27 (pancreas, adherent) | 0.984 | > 1020 | 0.976 | > 20000 | 0.925 | > 1000 | 0.94 | > 2560 | 0.834 | 75.6 | 0.847 | 6640 | 0.029 | < 20 | 0.537 | 1560 | – | – | 0.988 | > 2000 | 0.93 | > 10000 | 0.929 | > 2560
PANC-10-05 (pancreas, adherent) | 0.978 | > 1020 | 0.962 | > 20000 | 0.961 | > 1000 | 0.715 | 781 | 0.781 | 69.4 | 0.918 | > 10000 | 0.055 | < 20 | 0.364 | 470 | – | – | 0.969 | > 2000 | 0.976 | > 10000 | 0.788 | 1490
PC-14 (lung adenocarcinoma, adherent) | 0.966 | > 1020 | 0.934 | > 20000 | 0.987 | > 1000 | 0.883 | 2220 | 0.552 | 10.9 | 0.868 | 7500 | 0.055 | < 20 | 0.324 | 428 | – | – | 0.984 | > 2000 | 0.984 | > 10000 | 0.975 | > 2560
RCC-MF (kidney, adherent) | – | – | 0.919 | > 20000 | 0.976 | > 1000 | – | – | 0.8 | 84.1 | 0.783 | 5600 | 0.191 | 27.7 | 0.317 | 329 | 0.895 | > 12.5 | – | – | – | – | – | –
RERF-GC-1B (stomach, adherent) | 0.981 | > 1020 | 0.807 | 11800 | 0.955 | > 1000 | 0.6 | 311 | 0.95 | > 128 | 0.905 | > 10000 | 0.267 | 63.5 | 0.767 | 8260 | – | – | 0.937 | > 2000 | 0.984 | > 10000 | 0.75 | 923

By IC50 is meant the dose at which the fit gives 50% viability; a limit (>, <) means that the fit lies beyond the doses tested. AUC is the area under the same curve over the 256-fold range up to the top dose, as a fraction; values near 1 show little effect. For some assays here: The top dose, if marked as inferred, was calculated from the reported fits. For some assays here: Drugs with an entry number were screened twice under separate entries, and the two screens often disagree.
